Measurements reported in the antibiotic and cytotoxicity screens of Wong et al. (2023).
The list shows a part of the results.

Tests used:
HSkMC = human skeletal muscle cells; assay: cytotoxicity call (relative viability < 0.9); conditions: 10 µM
HepG2 = assay: cytotoxicity call (relative viability < 0.9); conditions: 10 µM
S. aureus RN4220 = assay: growth inhibition call (relative growth <= 0.2); conditions: 50 µM

SMILES	cytotoxicity call (HSkMC)	cytotoxicity call (HepG2)	growth inhibition call (S. aureus RN4220)
COc1ccc(S(=O)(=O)Nc2ccc3c(c2)C(=O)N([C@H](C)CO)C[C@H](C)[C@H](CN(C)C(=O)NC(C)C)O3)cc1	inactive	inactive	inactive
C[C@H]1CN([C@@H](C)CO)C(=O)c2c(c3ccccc3n2C)-c2ccccc2CO[C@@H]1CN(C)C(=O)Nc1ccc(-c2ccccc2)cc1	inactive	inactive	inactive
CC[C@@H](O[Si](C#C[Si](C(C)C)(C(C)C)C(C)C)(C(C)C)C(C)C)c1cn([C@H](C)c2ccccc2)nn1	inactive	inactive	inactive
COc1ccc(NC(=O)N(C)C[C@@H]2Oc3ccc(NC(=O)CCN4CCOCC4)cc3C(=O)N([C@H](C)CO)C[C@@H]2C)cc1	inactive	inactive	inactive
C[C@H]1CN([C@@H](C)CO)C(=O)Cc2cc(NC(=O)CCC(F)(F)F)ccc2O[C@@H]1CN(C)S(=O)(=O)c1cccs1	inactive	inactive	inactive
COc1ccc(NC(=O)N(C)C[C@H]2Oc3ccc(NC(=O)CCN4CCOCC4)cc3CC(=O)N([C@H](C)CO)C[C@H]2C)cc1	inactive	inactive	inactive
C[C@@H]1CN([C@H](C)CO)C(=O)c2cccc(NS(=O)(=O)c3cccs3)c2O[C@@H]1CN(C)S(=O)(=O)c1ccccc1	inactive	inactive	inactive
COc1ccc(S(=O)(=O)N(C)C[C@@H]2Oc3c(NS(=O)(=O)c4cccs4)cccc3C(=O)N([C@H](C)CO)C[C@@H]2C)cc1	inactive	inactive	inactive
NCCCC(=O)O	inactive	inactive	inactive
C[C@H](CO)N1C[C@H](C)[C@@H](CN(C)C(=O)C2CCCCC2)OCCCC[C@H](C)Oc2ccc(NS(=O)(=O)c3cccs3)cc2C1=O	inactive	inactive	inactive
CCNc1nc(=O)cc(F)[nH]1	inactive	inactive	inactive
C[C@H]1CN([C@@H](C)CO)C(=O)Cc2cc(NC(=O)Cc3cn(C)c4ccccc34)ccc2O[C@@H]1CN(C)Cc1ccc(-c2ccccc2)cc1	inactive	inactive	inactive
CCN(CC)CCCCNc1ncc2cc(-c3cc(OC)cc(OC)c3)c(NC(=O)NC(C)(C)C)nc2n1	active	active	inactive
COCCOC(=O)N1C(=O)[C@@]2(c3cc(C#CCNC(N)=O)ccc31)[C@H](c1ccccc1OCCO)N1[C@H](c3ccccc3)[C@H](c3ccccc3)OC(=O)[C@H]1[C@@H]2C(=O)N1CCCCCCC1	inactive	inactive	inactive
Cc1cc(Cl)ccc1OCCN1CCN(C(=O)[C@H]2CC[C@@H](N)C2)CC1	inactive	inactive	inactive
C[C@H](CO)N1C[C@H](C)[C@@H](CN(C)Cc2ccc(C(=O)O)cc2)Oc2ccc(NC(=O)c3ccncc3)cc2C1=O	inactive	inactive	inactive
COc1ccc2c3c([nH]c2c1)[C@H](CO)N(C[C@]13CCN(CC1)C(=O)NC(C)C)C(=O)CN1CCOCC1	inactive	inactive	inactive
C[C@@H]1CN([C@H](C)CO)S(=O)(=O)c2ccc(-c3cccnc3)cc2O[C@@H]1CN(C)C(=O)c1cccc(F)c1	inactive	inactive	inactive
Cc1noc(C)c1S(=O)(=O)Nc1cccc2c1O[C@@H](CN(C)Cc1ccc3c(c1)OCO3)[C@@H](C)CN([C@@H](C)CO)C2=O	inactive	inactive	inactive
Cc1noc(C)c1S(=O)(=O)N(C)C[C@@H]1Oc2ccc(NC(=O)CCN3CCOCC3)cc2CC(=O)N([C@@H](C)CO)C[C@@H]1C	inactive	inactive	inactive
Cc1ncc([N+](=O)[O-])n1CC(C)O (stereo not given)	inactive	inactive	inactive
CCCNC(=O)C[C@H]1CC[C@@H]2[C@H](COc3ccc(NS(=O)(=O)c4ccccc4C)cc3C(=O)N2C)O1	inactive	inactive	inactive
C[C@H](CO)N1C[C@H](C)[C@H](CN(C)C(=O)Nc2ccccc2)OCCCC[C@H](C)Oc2ccc(NS(=O)(=O)c3ccc(Cl)cc3)cc2C1=O	inactive	inactive	inactive
CC(C)NC(=O)N[C@H]1C=C[C@H](CC(=O)NCCN2CCCC2)O[C@H]1CO	inactive	inactive	inactive
COc1ccc2c3c(n(c2c1)C)[C@H](CO)N(C[C@]13CCN(CC1)C(=O)c1ccccn1)C(=O)c1ccccn1	inactive	inactive	inactive
C[C@@H]1CCCCO[C@H](CN(C)C(=O)Nc2cccc3ccccc23)[C@@H](C)CN([C@@H](C)CO)C(=O)c2cc(NC(=O)CCC(F)(F)F)ccc2O1	inactive	inactive	inactive
c1ccc(-c2cccs2)nc1	inactive	inactive	inactive
Cn1c(=O)c2c(ncn2CC(O)CO)n(C)c1=O (stereo not given)	inactive	inactive	inactive
C[C@H]1CN([C@@H](C)CO)C(=O)c2cccc(NS(=O)(=O)c3cn(C)cn3)c2O[C@H]1CN(C)Cc1ccc(C(=O)Nc2ccccc2N)cc1	inactive	inactive	inactive
C[C@H](CO)N1C[C@H](C)[C@H](CN(C)Cc2ccc(C(=O)O)cc2)Oc2ccc(NC(=O)Nc3ccc(C(F)(F)F)cc3)cc2CC1=O	inactive	inactive	inactive
